Test results taken from PubChem BioAssay AID493208 (National Center for Advancing Translational Sciences (NCATS), 2011).
In all, about 44,000 compounds went through this assay and about 340 (0.77%) were called active. Another 5% or so got no clear call; they are omitted. The call rests on the fitted dose curve; in most records, active means well fitted inhibition curve with a large enough effect; inconclusive means small, poorly fitted or top-dose-only effect; inactive means flat fitted curve, though single readings scatter. The list shows a part of the results.

experiment: Acumen qHTS Assay for Inhibitors of the mTORC1 Signaling Pathway in MEF (Tsc2-/-, p53-/-) Cells: Sytravon; conditions: phospho-rpS6 immunofluorescence/PI, 24 h; series mostly up to 38.3 µM; activity change, negative = inhibition: at the top concentration;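 further: plate controls were DMSO for no effect and rapamycin for full effect; nearly all actives have a fitted effect of over 50% in size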
Summary of the method: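 Tsc2-/-, p53-/- MEFs (empty-vector stable line) in DMEM + 10% FBS were treated with compounds 24 h at 37 degree Celsius, fixed, and immunostained for phospho-rpS6 (Alexa-488) with propidium iodide counterstain. Laser-scanning cytometry gave % positive cells, normalized against 7.5 nM rapamycin and DMSO.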

Activity change, negative = inhibition, inactive:
CCOC(=O)c1c(C)[nH]c(C)c1S(=O)(=O)N1CCC(C(=O)NCc2ccccc2)CC1 2.4%, Cc1ccc(C)c(OCCSc2nc3ccccc3n2CC(=O)N2CCOCC2)c1 -9.91%, COc1ccc2c(c1)c1c(c(=O)n(Cc3ccccc3)c(=O)n1Cc1cc(C)ccc1C)n2C 2.09%, Cc1nc2ccn(Cc3ccco3)c(=O)c2cc1C(=O)N1CCN(c2ccccc2F)CC1 1.35%, COc1ccc(NC(=O)Cc2coc3cc(C)cc(C)c23)c(OC)c1 0.562%, Cc1nn2c(=O)cc(COC(=O)c3ccccc3NC(=O)c3ccccc3C)nc2s1 0%, COc1cccc(OCc2nc3ccccc3n2CCOc2ccccc2)c1 -14.3%, Cc1ccc(S(=O)(=O)N2CCCC(c3nc4c(nnn4Cc4ccc(OC(F)(F)F)cc4)c(=O)[nH]3)C2)cc1 (stereo unspecified) 4.07%, Cn1nc(-c2ccc(OCC(=O)Nc3ccccc3)cc2)c2ccccc2c1=O -13.1%, O=C(Cn1c(=O)nc(-c2ccccc2)c2cc(Cl)ccc21)NCc1ccccc1 0%, COCCNC(=O)c1cc2n(n1)CCCN(Cc1ccc(C)cc1)C2=O 26.7%, CC(=O)Cn1nnc2sc(-c3ccccc3)cc2c1=O 1.63%, Cc1c(Cl)cccc1Nc1sc(C(=O)c2ccccc2)c(N)c1S(=O)(=O)c1ccccc1 -0.179%, CN(Cc1ccccc1)C(=O)c1cc2c(=O)n(C)c3ccccc3c2s1 -14.5%, CCOC(=O)N1CCc2c(sc3c2c(=O)n(Cc2ccccc2)c(=O)n3Cc2c(F)cccc2Cl)C1 3.4%, O=C1CC(c2nc3ccccc3n2Cc2c(F)cccc2Cl)CN1c1cccc(C(F)(F)F)c1 (stereo unspecified) -13.4%, CSc1cccc(N2C(=O)N(Cc3ccc([N+](=O)[O-])cc3)c3ccccc3S2(=O)=O)c1 -4.73%, COc1ccc(NC(=O)CC2C(=O)N(c3ccc(C)cc3)C(=O)N2CCc2ccccc2)cc1 (stereo unspecified) -2.69%, COc1ccc(CC(=O)Nc2c(C(=O)Nc3ccccc3F)oc3ccccc23)cc1 -13.1%, Cc1ccccc1NC(=O)c1sc2nc(-c3ccncc3)ccc2c1N -5.34%, O=C(CC1C(=O)N(c2ccc(F)cc2)C(=O)N1Cc1cccnc1)Nc1ccc(F)cc1 (stereo unspecified) -4.84%, CCOC(=O)c1ccc(N2C(=O)c3n[nH]c(-c4cccs4)c3C2c2ccc(C)cc2)cc1 (stereo unspecified) -11.7%, CCCCOc1cccc(C(=O)Nc2cc3nn(-c4ccc(F)cc4)nc3cc2C)c1 -10.1%, CCCN(CCC)CCCNC(=O)Cn1ncc2c3ccccc3n(Cc3ccc(F)cc3)c2c1=O -5.16%, COCCCNC(=O)CCCn1c(=O)c2cccn2c2cccnc21 -0.415%, Cc1nc(C)c(-c2ccc(SCC(=O)Nc3ccccc3F)nn2)s1 -3.07%, Cc1cc2ccccc2n1-c1ccc(C(=O)N2CCCCC2)s1 5.91%, COc1cccc(CNC(=O)CCNS(=O)(=O)c2cccc3nsnc23)c1 -15%, CCn1cc(S(=O)(=O)c2ccccc2)c(=O)c2cc(C)ccc21 0.671%, CCOC(=O)c1[nH]c2ccccc2c1NC(=O)c1ccc(OC(C)C)cc1 -17.7%, COc1cc(OC)cc(C(=O)Nc2ccc(S(=O)(=O)Nc3cc(C)nc(C)n3)cc2)c1 -3.41%, COc1ccc(CCN2CC(C(=O)NCCc3ccc(C)cc3)CC2=O)cc1OC (stereo unspecified) -0.0514%, CCCCn1c(COc2cccc(OC)c2)nc2ccccc21 -27.5%, COc1cc(NC(=O)c2cc3c(=O)oc4ccc(C)cc4c3s2)cc(OC)c1OC -0.0312%, CC(C)(CC(=O)OCC(=O)Nc1ccc(F)c(Cl)c1)CC1=NS(=O)(=O)c2ccccc2N1 -2.49%, CCCc1cc(=O)n2[nH]c(NCc3ccc(CC)cc3)nc2n1 4.16%, O=C1c2[nH]nc(-c3ccccc3)c2C(c2ccccc2)N1c1cccc(C(F)(F)F)c1 (stereo unspecified) -7.87%, O=C1SC(Nc2ccc(Cl)cc2)C(=O)N1Cc1ccccc1 (stereo unspecified) 14.1%, Cc1c(Cl)cccc1Nc1nc(N)nc(CSc2nc3ccccc3s2)n1 7.07%, Cc1ccc(NC(=O)CCCn2c3ccccc3c(=O)c3cc(C)ccc32)c(Br)c1 9.22%, CC1CCN(S(=O)(=O)c2ccc3c(c2)N(CC(=O)NCCc2ccc(Cl)cc2)C(=O)CO3)CC1 7.06%, CCOC(=O)c1c(C)[nH]c(C)c1S(=O)(=O)N1CCC(C(=O)N2CCN(c3cc(C)ccc3C)CC2)CC1 -10.7%, Cc1ccc2oc(C(=O)Nc3ccc(S(=O)(=O)Nc4onc(C)c4C)cc3)cc(=O)c2c1 6.61%, O=C1CS(=O)(=O)C2(C(=O)N(Cc3ccc(F)cc3)c3ccccc32)N1c1cccc(C(F)(F)F)c1 (stereo unspecified) 0.88%, O=C(CSc1ncc(S(=O)(=O)c2ccc(Cl)cc2)c(=O)[nH]1)Nc1ccc2c(c1)OCCO2 -4.3%, CCCCNC(=O)C1=CC(c2ccc3c(c2)OCO3)=NS(=O)(=O)N1C 0.406%, CCOc1ccc(N(C)C(=O)C2CCN(S(=O)(=O)c3ccc4c(c3)CCCN4C(C)=O)CC2)cc1 -4.4%, CCC(Sc1nc2ccncc2[nH]1)C(=O)Nc1ccc(F)cc1 (stereo unspecified) 2.76%, O=S(=O)(c1ccccc1)c1nnn2c1nc(Nc1ccccc1)c1cc(Cl)ccc12 -0.789%, Cc1ccc(Cl)cc1N1CCN(C(=O)Cn2ncc3c([nH]c4ccccc43)c2=O)CC1 3.85%, COc1cccc(-n2c(=O)c3sc4ccccc4c3n(CC(=O)Nc3ccccc3OC)c2=O)c1 -7.59%, Cc1ccc(-n2nc(CO)c(C(=O)NCCc3ccccc3)n2)cc1 -0.223%, O=C(CSc1nnc(-c2ccc(Cl)cc2)o1)N1CCc2ccccc21 -11.5%, Cc1ccc(Cn2cnc3c(oc4ccccc43)c2=O)cc1 3.55%, Cc1cc(C)cc(NC(=O)C(NS(=O)(=O)c2cccc3nsnc23)c2ccccc2)c1 (stereo unspecified) 4.88%, CCOC(=O)N1CCN(C(=O)c2ccc3c(c2)N(Cc2cc(C)ccc2C)C(=O)c2ccccc2S3=O)CC1 (stereo unspecified) -7.68%, COc1ccc(CCNC(=O)CCc2cn(Cc3ccc(C)cc3)c3ccccc23)cc1OC -11.6%, CCCCOc1nnc(-c2ccc(OCC)cc2)c2ccccc12 -0.284%, CCCCn1c2ccccc2c2nnc(SCC(=O)Nc3ccc(NC(C)=O)cc3)nc21 -3.29%, O=C(Nc1onc2c1CCCC2)c1ccc(Cl)cc1 -9.66%, CCc1nc2nc(C)cc(Nc3ccc(Br)cc3F)n2n1 3.62%, Cc1ccccc1NC(=O)c1c2c(nc3ccccc13)C(=O)N(C1CCCCC1)C2 -16%, Cc1ccc2c(=O)c(C(=O)c3ccc(F)cc3)cn(CC(=O)NC3CCCCC3)c2n1 -7.02%, CCOc1ccc(CNC(=O)c2cc3c(=O)n(Cc4cccs4)ccc3nc2C)cc1 -4.81%, CC(=O)Nc1ccc(S(=O)(=O)Nc2ccc(-c3cn4c(C)csc4n3)cc2)cc1 1.72%, COC(=O)c1cc(S(=O)(=O)N2CCN(c3cccc(C)c3)C(C)C2)c[nH]1 (stereo unspecified) -1.21%, CCc1c(C)sc(NC(=O)c2cc(-c3ccc(OC)cc3)on2)c1C#N 6.64%, COc1ccc2c(Sc3ccccc3)c(C(=O)NCc3ccc(OC(C)C)cc3)[nH]c2c1 -0.554%, COc1ccc(-c2nc3ccc(NS(=O)(=O)c4ccccc4)cc3o2)cc1 -0.562%, COc1cccc(CNC(=O)c2cc3n(n2)CCCN(Cc2ccc(C)cc2)C3=O)c1OC 0%, Cc1cccc(-c2nnc3n(CCc4ccccc4)c(=O)c4ccccc4n23)c1 -2.37%, CCOc1ccc(-n2c(SCC(=O)NCc3ccco3)nc3c([nH]c4ccccc43)c2=O)cc1 -12.5%, Cc1ccc(NC(=O)c2sc(-n3nc(C)c(Cc4ccc(Cl)cc4)c3C)nc2C)cc1 -2.79%, Cc1ccc(-n2c3nc(=O)[nH]c(=O)c-3cc3c(Cl)cccc32)cc1 -3.31%, Cc1ccc(Cn2ccnc2SCC(=O)Nc2ccc3c(c2)OCO3)cc1 -14.3%, Cc1ccc(C)c(NC(=O)N2CCN(C)c3ncccc32)c1 5.67%, CCOc1ccc(NC(=O)c2c(NC(=O)Cc3ccccc3)sc3c2CCCC3)cc1 -20.9%, CCN(Cc1ccccc1)C(=O)Cn1c(=O)n(-c2ccc(OC)cc2OC)c(=O)c2c(C)c(C)sc21 -1.6%, CCOc1ccc(CNC(=O)c2ccc(-c3nc(CSc4ccc(C)cc4)c(C)o3)cc2)cc1 2.14%, COc1ccc(Cl)cc1NC(=O)Cn1c(=O)n(Cc2ccco2)c(=O)c2ccc(C(=O)NC3CCCC3)cc21 2.67%, CCCCOc1ccc(C(C)NC(=O)c2cccc(Nc3nc4ccccc4n4nnnc34)c2)cc1 (stereo unspecified) 1.58%, CCOc1ccc(CCNC(=O)CSc2n[nH]c(-c3ccccc3)n2)cc1OCC -11%, Cc1c(CC(=O)N2CCCCC2)c(=O)oc2c(C)c3occ(C(C)(C)C)c3cc12 3.84%, Cc1ccc(CN2CCSc3ccc(C(=O)NCCc4ccccc4)cc32)cc1 -2.25%, COc1ccc(Cl)cc1NC(=O)C1CCN(c2nnc(C)c3c(C)n(-c4ccccc4)nc23)CC1 -0.507%, O=c1n(Cc2cccc(F)c2)c2ccccc2c2nc(-c3ccccc3)nn12 4.99%, CN(C)C=NC(=O)c1cc2c(n(-c3ccccc3)c1=O)CC(C)(C)CC2=O -9.2%, COc1cccc(CSc2nc3n(n2)C(c2cccc(F)c2)C(C(=O)Nc2ccccc2C)=C(C)N3)c1 (stereo unspecified) -1.32%, CN(C)c1cc2c(cc1NS(=O)(=O)c1ccccc1)n(C)c(=O)n2C 1.59%, COc1ccc(CN(C(=O)Nc2cccc(Cl)c2)c2ccccn2)cc1OC -9.98%, Cc1ccc(O)c(NC(=O)c2cc(-c3ccc4c(c3)OCO4)on2)c1 -2.03%, COc1ccc(CNC(=O)CCCN2C(=O)CSc3c2c(C)nn3-c2ccccc2)c(OC)c1 3.92%, COCCNC(=O)CCC(=O)N1Cc2cccc(OC)c2Oc2ncccc21 -8.67%, COc1ccc(Cl)cc1NC(=O)CCS(=O)(=O)c1cccc2nonc12 -8.23%, Cc1ccc(NC(=O)C(=O)NCC(c2cccnc2)N2CCOCC2)cc1Cl (stereo unspecified) -15.6%, CCc1ccc(NC(=O)Cn2ccn(Cc3ccccc3OC)c(=O)c2=O)cc1 0.746%
